Data as given in the supplement of paper PMC7266297.
Where a name gives a salt, the structure may show the parent alone. The list shows a part of the results. Most values come without repeats; read them as rough.

How the values were obtained:
[1] = tested on: KB-3-1; assay: growth inhibition relative to DMSO control (SRB); cervical cancer cells: KB-3-1 is the parent and KB-V1 overexpresses MDR1; SRB is the sulforhodamine B stain; higher = more growth inhibition; conditions: 1 µM; 72 h
[2] = tested on: KB-V1; assay: as above; conditions: 1 µM; 72 h
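Note: Read-out is SRB optical density at 490 nm, with the control being wells given 0.5% DMSO vehicle, and compound added one day after cells were plated.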

Compound | growth inhibition [1] [%] | growth inhibition [2] [%]
COc1cc([C@@H]2c3cc4c(cc3[C@@H](O[C@@H]3O[C@@H]5CO[C@@H](C)O[C@H]5[C@H](O)[C@H]3O)[C@H]3COC(=O)[C@H]23)OCO4)cc(OC)c1O [Etoposide] | 42.2 | 41.3
O=C(NCCS(=O)(=O)c1ccc(C(F)(F)F)cn1)c1ccc(Cl)cc1 | 40.2 | 5.56
CCCCOc1ccc(CC(=O)NO)cc1 [Bufexamac] | 1.72 | 12.3
CN(C)CCc1c[nH]c2ccc(C[C@H]3COC(=O)N3)cc12 [Zolmitriptan] | 23 | 6.66
COc1ccc2cc(CCC(C)=O)ccc2c1 [Nabumetone] | 9.37 | 1.95
COc1cc(Br)c(Nc2nc(-c3c(C)nc4ncccn34)cs2)c(Br)c1 | 63 | 5.56
CN(C)CCC[C@@]1(c2ccc(F)cc2)OCc2cc(C#N)ccc21 [Escitalopram Oxalate] | 44.3 | 19
CN(CCOc1ccc(CC2SC(=O)NC2=O)cc1)c1ccccn1 (stereo unspecified) [Rosiglitazone] | < 0 | < 0
Cn1cc(/C=C/C(=O)c2cccc(F)c2)cc1/C=C/C(=O)NO | 23.9 | 14.7
CN(NC(=O)CC(=O)NN(C)C(=S)c1ccccc1)C(=S)c1ccccc1 [Elesclomol (STA-4783)] | 97.3 | 99.2
COCCOc1ccc2c(c1)ncn2-c1ccc2cccc(N3CCC(N)CC3)c2n1 | 68.5 | 18.4
CC(=O)S[C@@H]1CC2=CC(=O)CC[C@]2(C)[C@H]2CC[C@@]3(C)[C@@H](CC[C@@]34CCC(=O)O4)[C@H]12 [Spironolactone] | 25.2 | 4.8
CS(=O)(=O)c1ccc(-c2cnc(N)c(C(=O)Nc3ccccc3)n2)cc1 | 44.8 | 1.85
Clc1ccc2c(c1)CCc1cccnc1C2=C1CCNCC1 [Desloratadine] | < 0 | < 0
Cc1cc(OCCCS(C)(=O)=O)cc(C)c1-c1cccc(COc2ccc3c(c2)OC[C@H]3CC(=O)O)c1 | < 0 | < 0
COc1cc(OC)c2c(=O)[nH]c(-c3cc(C)c(OCCO)c(C)c3)nc2c1 | 13.5 | 7.45
COc1ccccc1N1CCN(CCCNc2cc(=O)n(C)c(=O)n2C)CC1 [Urapidil HCl] | 49.5 | 11

Compound | growth inhibition [1] [%] | growth inhibition [2] [%]
COC(=O)C1=C(C#N)NC(C)=C(C(=O)OC(C)C)C1c1cccc([N+](=O)[O-])c1 (stereo unspecified) [Nilvadipine] | < 0 | < 0
CC(C)(C)c1cc(NC(=O)Nc2ccc(-c3cn4c(n3)sc3cc(OCCN5CCOCC5)ccc34)cc2)no1 [Quizartinib (AC220)] | 56.7 | 52.3
COc1cc2nc(N3CCN(C(=O)C4CCCO4)CC3)nc(N)c2cc1OC (stereo unspecified) [Terazosin HCl] | 18.9 | 18.9
CCOC(=O)[C@H](CCc1ccccc1)N[C@@H](C)C(=O)N1Cc2ccccc2C[C@H]1C(=O)O [Quinapril HCl] | < 0 | < 0
CC(NC(=O)c1ccccc1/N=C/c1c(O)ccc2ccccc12)c1ccccc1 (stereo unspecified) [Sirtinol] | 7.14 | 10.8
c1ccc(NCc2ccc(CNc3ccccn3)cc2)nc1 | < 0 | 9.35
CN(C)CCc1c[nH]c2ccc(CS(=O)(=O)N3CCCC3)cc12 [Almotriptan Malate] | 22.3 | 22.3
Cc1ccc(N(CC2=NCCN2)c2cccc(O)c2)cc1 [Phentolamine Mesylate] | 68.1 | 14.5
Nc1ccc(C(=O)O)c(O)c1 [Sodium 4-Aminosalicylate] | < 0 | < 0
C=CC(=O)Nc1ccc2ncnc(Nc3ccc(OCc4cccc(F)c4)c(Cl)c3)c2c1 | 31.2 | 36.4
Nc1cccc2c1CN(C1CCC(=O)NC1=O)C2=O (stereo unspecified) [Lenalidomide (CC-5013)] | 28.2 | 22.2
CN(C)Cc1c(C(=O)NCCOc2ccc(C(=O)NO)cc2)oc2ccccc12 | 94.8 | 91.9
COC(=O)C1=C(C)NC(C)=C(C(=O)OC2CCCN(Cc3ccccc3)C2)C1c1cccc([N+](=O)[O-])c1 (stereo unspecified) [Benidipine HCl] | 54.9 | 11
CNC(=O)c1nn(C)c2c1C(C)(C)Cc1cnc(Nc3ccc(N4CCN(C)CC4)cc3)nc1-2 | < 0 | 64.6
Cc1cnc(Nc2ccc(OCCN3CCCC3)cc2)nc1Nc1cccc(S(=O)(=O)NC(C)(C)C)c1 | < 0 | < 0
Cc1ccccc1C(C(=O)NC1CCCCC1)N(C(=O)Cn1ccnc1C)c1cccc(F)c1 (stereo unspecified) | < 0 | < 0
